Data on one molecule can be found in PubChem BioAssay (NCI).

For the assay, the system named is MDA-MB-468 breast. Description: DTP human tumour cell line panel, 48 h.

The structures appear in SMILES notation.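 In this assay, cells in 96-well plates receive the compound at five concentrations for 48 hours. Endpoints are linearly interpolated between the surrounding concentrations. TGI marks complete inhibition of growth.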 Not every entry of the source has a single result; some have several. The list is limited to them. There may be further records. Records of one sample usually come from different ranges of test concentrations, which the source does not state; some values may only mark the edge of a range.

Usually TGI stands for the concentration at which net growth stops. Consider `COc1cc2c(c(O)c1Cl)C(=O)c1c(O)cc(C[C@H](C)O)cc1[C@H]2[C@H]1c2cc(C[C@H](C)O)cc(O)c2C(=O)c2c1cc(OC)c(Cl)c2O`, for which the total growth inhibition concentration (TGI) is 5.25 µM and 61.7 µM.
